This note sets out measurements from PMC4336329 (PLoS ONE, 2015).

SMILES strings stand for the structures. Screen size: about 310,000 compounds; about 14,000 (4.5%) showed an effect of 50% or more. The effect is printed as a negative number. This is one part of the list.
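Also: peak tail current of the secondary pulse compared with the same well before compound.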

human ether-à-go-go-related gene (hERG) potassium channel, sequence (Q12809 whole entry, looked up): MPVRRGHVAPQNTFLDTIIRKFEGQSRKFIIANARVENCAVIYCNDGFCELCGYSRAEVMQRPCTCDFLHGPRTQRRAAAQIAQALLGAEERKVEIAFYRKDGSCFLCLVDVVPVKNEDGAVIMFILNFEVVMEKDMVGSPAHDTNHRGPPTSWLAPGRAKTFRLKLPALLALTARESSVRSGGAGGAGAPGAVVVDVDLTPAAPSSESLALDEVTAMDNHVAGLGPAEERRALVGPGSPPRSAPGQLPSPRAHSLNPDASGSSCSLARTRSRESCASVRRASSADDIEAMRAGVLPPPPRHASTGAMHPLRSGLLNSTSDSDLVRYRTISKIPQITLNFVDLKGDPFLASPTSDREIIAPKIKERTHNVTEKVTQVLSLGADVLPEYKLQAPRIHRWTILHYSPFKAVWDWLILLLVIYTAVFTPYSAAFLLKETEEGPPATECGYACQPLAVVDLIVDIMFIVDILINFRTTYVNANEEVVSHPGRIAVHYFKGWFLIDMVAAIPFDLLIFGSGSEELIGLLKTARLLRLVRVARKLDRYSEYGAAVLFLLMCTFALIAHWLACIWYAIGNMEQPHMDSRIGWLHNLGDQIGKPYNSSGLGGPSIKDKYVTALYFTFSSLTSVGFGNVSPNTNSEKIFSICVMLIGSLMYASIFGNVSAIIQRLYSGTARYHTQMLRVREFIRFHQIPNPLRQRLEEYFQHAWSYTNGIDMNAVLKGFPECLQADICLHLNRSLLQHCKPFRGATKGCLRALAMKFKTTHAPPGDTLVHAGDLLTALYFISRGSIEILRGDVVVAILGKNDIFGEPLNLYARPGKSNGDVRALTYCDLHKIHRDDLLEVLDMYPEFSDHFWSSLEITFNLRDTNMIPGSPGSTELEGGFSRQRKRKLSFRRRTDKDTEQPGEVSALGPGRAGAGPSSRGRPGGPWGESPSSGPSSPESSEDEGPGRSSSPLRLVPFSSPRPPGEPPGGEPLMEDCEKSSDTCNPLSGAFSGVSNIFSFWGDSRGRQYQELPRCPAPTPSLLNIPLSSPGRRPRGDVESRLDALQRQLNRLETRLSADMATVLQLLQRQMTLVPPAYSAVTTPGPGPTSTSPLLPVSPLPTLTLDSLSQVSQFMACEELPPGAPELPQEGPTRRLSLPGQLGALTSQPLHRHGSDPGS

This assay addresses human ether-à-go-go-related gene (hERG) potassium channel (human, UniProt Q12809). The assay is described as follows: primary screen, population patch clamp on CHO cells stably expressing hERG.
Turning to `CCOc1ccc(N(CC(=O)NC2CCCCCC2)S(=O)(=O)c2c(C)[nH]c(=O)[nH]c2=O)cc1`, the “hERG current change (%, negative = inhibition) at 10uM” value was determined as 35.3%.

As to `CCn1c(SCC(=O)NC2=NCCS2)nnc1C(C)NC(=O)c1ccccc1F` (stereo not shown), the “hERG current change (%, negative = inhibition) at 10uM” value is reported as 13.7%.

Regarding `COc1ccc(OCC(=O)N/N=C2\CCCc3ccccc32)cc1`, the “hERG current change (%, negative = inhibition) at 10uM” value is reported as -11.6%.

Regarding `CCN1CCN(Cc2cccc(Oc3ccccc3)c2)CC1`, the “hERG current change (%, negative = inhibition) at 10uM” value is -35.9%.

Regarding `COc1ccccc1N1CCN(C(CNS(=O)(=O)c2cc(F)ccc2F)c2cccnc2)CC1` (stereo not shown), the “hERG current change (%, negative = inhibition) at 10uM” value is -35%.

As to `O=S(=O)(Nc1nc2ccccc2nc1NCCO)c1cccc(Cl)c1`, the “hERG current change (%, negative = inhibition) at 10uM” value was found to be 10.4%.

Consider `CN(C)S(=O)(=O)N1CCN(c2ccc([N+](=O)[O-])c(NC3CC3)c2)CC1`, for which the “hERG current change (%, negative = inhibition) at 10uM” value worked out at 7.44%.

As for `COc1cc(/C=N/NC(=O)c2ccc(CSc3nc4ccccc4[nH]3)cc2)cc(OC)c1OC`, the “hERG current change (%, negative = inhibition) at 10uM” value is recorded as -8.35%.

With `CC(=O)c1ccc(O)c(CC=C(C)C)c1O`, the “hERG current change (%, negative = inhibition) at 10uM” value came to 2.1%.

`CC(=O)c1ccc(NC(=O)C2CCCN(C(=O)c3ccc(Cl)cc3)C2)cc1` (stereo not shown): the “hERG current change (%, negative = inhibition) at 10uM” value was -29.7%.

Turning to `CCCNC(=O)C1(CC2CC(c3ccccc3)=NO2)CCN(C(=O)C2(C)CC2)CC1` (stereo not shown), the “hERG current change (%, negative = inhibition) at 10uM” value is recorded as -17%.

Consider `COc1ccc(F)cc1C(=O)C1CCCN(Cc2cccn2-c2ccccn2)C1` (stereo not shown), for which the “hERG current change (%, negative = inhibition) at 10uM” value is given as -83.5%.

For the compound `CCOC(=O)c1cnc(-n2nc(C)cc2C)nc1Oc1ccc(C(=O)OC)cc1`, the “hERG current change (%, negative = inhibition) at 10uM” value was determined as 16.6%.

In the case of `CC1(C)SC(=S)N(NC(=O)Nc2ccccc2)C1N(O)C(=O)Nc1ccccc1` (stereo not shown), the “hERG current change (%, negative = inhibition) at 10uM” value was 12.7%.

Regarding `COc1ccc(CCN)cc1OC`, the “hERG current change (%, negative = inhibition) at 10uM” value was 7.69%.

As to `Cc1onc(-c2ccccc2Cl)c1C(=O)Nc1cnn(Cc2ccccc2)c1`, the “hERG current change (%, negative = inhibition) at 10uM” value is -16.3%.

`CC(=O)C1=C(C)N(Cc2ccccc2)C(=O)N[C@H]1c1cccc(C(F)(F)F)c1`: the “hERG current change (%, negative = inhibition) at 10uM” value is recorded as -14.1%.

With `CS(=O)(=O)N(CC(=O)N1CCc2ccccc2C1)Cc1ccc(Cl)cc1`, the “hERG current change (%, negative = inhibition) at 10uM” value is reported as -25.8%.

As to `CCC(C)C(NC(=O)C1CCC(C)CC1)C(=O)NCc1ccco1` (stereo not shown), the “hERG current change (%, negative = inhibition) at 10uM” value amounted to 12.5%.

`COc1cccc(/C(O)=C2\C(=O)C(=O)N(c3ccccn3)C2c2ccccc2OC)c1` (stereo not shown): the “hERG current change (%, negative = inhibition) at 10uM” value is reported as 8.82%.

Consider `CCCCN(C(=O)NC(=O)Nc1ccccc1C)S(C)(=O)=O`, for which the “hERG current change (%, negative = inhibition) at 10uM” value came to 15.9%.

With `COc1ccccc1NC(=O)Cn1cc(C#N)c2ccccc21`, the “hERG current change (%, negative = inhibition) at 10uM” value is recorded as -9.01%.

With `Cc1ccc(O)c(CNc2nc3ccccc3n2C)c1`, the “hERG current change (%, negative = inhibition) at 10uM” value was 2.18%.

Consider `O=C(NCC(=O)N1CCC(Cc2ccccc2)CC1)c1ccc(Cl)cc1`, for which the “hERG current change (%, negative = inhibition) at 10uM” value is listed as -23.3%.

For the compound `O=c1c2sccc2nc(SCc2cc(=O)n3cc(Cl)ccc3n2)n1Cc1ccccn1`, the “hERG current change (%, negative = inhibition) at 10uM” value is -26.2%.

`COc1ccc(N2CCN(C(=O)CCNS(=O)(=O)c3ccc(Br)s3)CC2)cc1`: the “hERG current change (%, negative = inhibition) at 10uM” value is on record as -50.6%.

Consider `CC(=O)NCCOc1nc(N(C)C)nc(N2CCOCC2)n1`, for which the “hERG current change (%, negative = inhibition) at 10uM” value worked out at 3.54%.

`CCOc1ccc(C(=O)Nc2ccc(NC(=O)c3cccs3)cc2)cc1[N+](=O)[O-]`: the “hERG current change (%, negative = inhibition) at 10uM” value was -9.28%.

`CCOC(=O)/C(C(N)=NCC(C)C)=C(/O)c1ccccc1`: the “hERG current change (%, negative = inhibition) at 10uM” value is reported as -3.05%.

For `O=S1(=O)C=C(SCc2cccc(Cl)c2)Nc2ccccc21`, the “hERG current change (%, negative = inhibition) at 10uM” value is -8.09%.

On to `CC1=NN(Cc2c[nH]c3ccccc23)C(C)(C)C1`, for which the “hERG current change (%, negative = inhibition) at 10uM” value is recorded as -18%.

For the compound `CCOc1ncccc1C(=O)OCc1cn2cc(Cl)ccc2n1`, the “hERG current change (%, negative = inhibition) at 10uM” value is reported as -30.3%.

In the case of `O=C(CN1C(=O)C2C3CCC(C3)C2C1=O)N1CCN(Cc2ccccc2)CC1` (stereo not shown), the “hERG current change (%, negative = inhibition) at 10uM” value is -7.83%.

On to `NS(=O)(=O)c1cc(C(=O)O)cc(N2CCCC2)c1Oc1ccccc1`, for which the “hERG current change (%, negative = inhibition) at 10uM” value worked out at 0.0774%.

Consider `Cl.Fc1ccccc1COc1ccc(Br)cc1CNCc1cccnc1`, for which the “hERG current change (%, negative = inhibition) at 10uM” value is recorded as -70.2%.

As for `CCOC(=O)c1ccc(N(C(=O)c2ccco2)C(C(=O)NC2CCCC2)c2ccncc2)cc1` (stereo not shown), the “hERG current change (%, negative = inhibition) at 10uM” value was -43%.

Take `COc1ccc(OC)c(NC(=O)c2ccc3c(c2)C(=O)N(c2ccc(OC(C)=O)cc2)C3=O)c1`: the “hERG current change (%, negative = inhibition) at 10uM” value came out at 13.6%.

Consider `Cn1cc(CN2C[C@H]3CC[C@H]2C3)c(-c2ccccc2F)n1`, for which the “hERG current change (%, negative = inhibition) at 10uM” value is reported as 7.1%.

`Nn1c(COc2ccccc2F)nnc1SCC(=O)NC1CC1`: the “hERG current change (%, negative = inhibition) at 10uM” value came to 0.387%.

Consider `O=C(Nc1nnc(-c2cccs2)o1)c1cccc(C(F)(F)F)c1`, for which the “hERG current change (%, negative = inhibition) at 10uM” value is -0.761%.

For the compound `CCN(CC)CCOC(=O)c1c(C)oc2ccc(OC)cc12.Cl`, the “hERG current change (%, negative = inhibition) at 10uM” value is on record as -36.6%.

`Cc1cc(OCC(=O)N(Cc2cccs2)C2CCS(=O)(=O)C2)ccc1Cl` (stereo not shown): the “hERG current change (%, negative = inhibition) at 10uM” value is recorded as -42%.

As for `CCCOc1ccccc1-c1nc2n[nH]nc2c(=O)[nH]1`, the “hERG current change (%, negative = inhibition) at 10uM” value was -56.3%.
